Measurements from PubChem BioAssay AID488969 (Vanderbilt High Throughput Screening Facility, 2010).
Whole data set: some 110,000 compounds, median “z-score” near -0.1, cut for the highest 2% near 2. The list shows a part of the results. The source made the active and inactive calls.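 How the source made its calls: active means z-score in the third read window above 3 or below -3; inactive means the rest.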

target: Metabotropic glutamate receptor 8 (Rattus norvegicus) (UniProt P70579); assay: mGluR8 Gi/Go-coupled signaling modulation – cell-based, rat, thallium flux, HTS, primary screen (AID 488969); conditions: HEK293 rat mGluR8, GIRK (G protein-gated inwardly rectifying potassium channel) thallium flux, FluoZin2; at 10 µM; stronger effect = higher value; submaximal glutamate (EC20) added with thallium
Chain of UniProt P70579 (P70579 whole entry, looked up): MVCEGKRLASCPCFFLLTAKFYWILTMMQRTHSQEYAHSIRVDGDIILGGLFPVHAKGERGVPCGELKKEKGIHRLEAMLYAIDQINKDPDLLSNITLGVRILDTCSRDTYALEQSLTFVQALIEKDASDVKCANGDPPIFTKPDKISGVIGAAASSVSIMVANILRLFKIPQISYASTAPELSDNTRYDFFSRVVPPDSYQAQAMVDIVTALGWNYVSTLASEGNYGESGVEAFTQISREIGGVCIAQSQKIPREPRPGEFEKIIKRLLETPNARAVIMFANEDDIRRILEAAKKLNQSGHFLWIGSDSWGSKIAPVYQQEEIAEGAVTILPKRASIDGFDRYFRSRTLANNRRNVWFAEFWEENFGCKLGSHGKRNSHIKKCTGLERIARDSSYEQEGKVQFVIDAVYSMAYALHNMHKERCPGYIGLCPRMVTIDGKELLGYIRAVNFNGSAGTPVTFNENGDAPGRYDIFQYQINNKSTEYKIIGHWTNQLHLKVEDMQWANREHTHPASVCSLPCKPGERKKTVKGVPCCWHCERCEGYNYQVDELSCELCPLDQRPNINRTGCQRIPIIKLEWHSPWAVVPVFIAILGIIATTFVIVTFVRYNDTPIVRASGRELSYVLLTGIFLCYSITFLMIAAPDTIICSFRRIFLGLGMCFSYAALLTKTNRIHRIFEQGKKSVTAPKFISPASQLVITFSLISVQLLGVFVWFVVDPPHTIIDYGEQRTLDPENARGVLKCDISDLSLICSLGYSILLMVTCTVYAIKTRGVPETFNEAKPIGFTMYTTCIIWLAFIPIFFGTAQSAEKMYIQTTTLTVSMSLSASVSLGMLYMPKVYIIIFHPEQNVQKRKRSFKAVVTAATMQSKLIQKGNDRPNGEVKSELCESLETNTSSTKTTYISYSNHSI

Structure (SMILES)	z-score
CCc1ccc(OCC(=O)NC(=S)Nc2ccc(C(C)=O)cc2)c(Br)c1	-0.0252
C=CCN(C(=O)COc1ccccc1)c1nnc(-c2ccncc2)s1	-0.0954
Cc1ccc(-c2nn3c(=O)c(C)nnc3s2)cc1	0.605
Cc1cc(C(=O)COC(=O)c2ccc(N)c([N+](=O)[O-])c2)c(C)n1-c1ccc2c(c1)OCO2	0.133
Cc1ccccc1NC(=S)NC(C)CCc1ccccc1 (stereo not drawn)	0.22
S=c1[nH]nc(COc2ccc3ccccc3c2)o1	0.0777
COc1ccc(C)cc1S(=O)(=O)N(C)CC(=O)N1CCC(C)CC1	-0.0521
CC1(C)CC(=O)c2cc(OCC(=O)NCCN3CCOCC3)ccc2O1	-0.0825
COc1cc(NC(=O)c2cccnc2Sc2ccc(C)c(C)c2)cc(OC)c1OC	0.304
COc1ccccc1NS(=O)(=O)c1cc(NC(=O)c2cccs2)ccc1N1CCCC1	-0.337
C=CCn1c(SCc2csc(-c3ccc(C)cc3)n2)nnc1-c1ccccc1OC	-0.529
CC(=O)c1cccc(NC(=O)C2CCCN(S(=O)(=O)c3ccc(F)cc3)C2)c1 (stereo not drawn)	-1.57
CCOC(=O)/C=C1\SCC(=O)N1CC(=O)Nc1ccc(C(C)C)cc1	-0.00276
CS(=O)(=O)N(Cc1ccc(C(=O)NCCSCc2ccco2)cc1)c1ccccc1	-0.0864
COc1cc(OC)c(C(=O)CCC(=O)O)cc1OC	-0.176
O=S(=O)(c1ccc2ccccc2c1)N1C=CC(C(F)(F)F)=NCC1	-0.382
COc1ccc(OC)c(C2C(C(C)=O)=C(O)C(=O)N2Cc2cccnc2)c1 (stereo not drawn)	0.268
COc1cc(OC)c(NC(=O)CS(=O)(=O)Cc2nc(-c3ccc(C)cc3)oc2C)cc1Cl	-0.345
Cc1cc(OC(=O)c2ccc(S(=O)(=O)N(C)C)cc2)cc(=O)o1	-0.362
CCCCn1c(SCC(=O)c2ccc(OC)cc2OC)nc2cc(S(N)(=O)=O)ccc21	0.146
COc1ccccc1Nc1nc2ccc(C)cc2cc1C#N	-0.577
O=[n+]1c2c(n([O-])c3c1CCCC3)CCCC2	-0.137
CSc1nc(N)nc(SCC(=O)OC(C)C)c1C#N	-0.323

Structure (SMILES)	z-score
CC(=O)NC(CC(=O)c1ccc([N+](=O)[O-])cc1)C(Cl)(Cl)Cl (stereo not drawn)	0.00261
Cc1ccc(NC(=O)CCCCCN2C(=O)c3ccccc3C2=O)nc1	-0.213
O=C(Nc1ccccc1C(=O)NCC1CCCO1)c1ccccc1 (stereo not drawn)	-0.185
O=C(Cn1c(CN2CCCCC2)nc2ccccc2c1=O)NCc1ccco1	0.995
CC1OC2(OC1C)C(=O)Nc1ccccc12 (stereo not drawn)	0.774
CN1CCN(C(=O)CN(c2cccc(Cl)c2)S(=O)(=O)c2ccccc2)CC1	-0.681
Cc1c(C(=O)N2CCCC2)sc(NC(=O)c2ccccc2)c1C#N	-1.61
Cc1cc(Cl)ccc1N(CC(=O)N=Nc1c(O)[nH]c2ccccc12)S(C)(=O)=O	0.226
Nc1ccc(-c2cnc(-c3ccc(N)cc3)nc2)cc1	0.25
CCOC(=O)N1CCN(c2ccc3nnnn3n2)CC1	1.97
Nc1nc(-c2ccc(Cl)cc2)nn1C(=O)c1cccnc1	0.0443
O=C(N/N=C/c1ccncc1)c1ccccc1OCc1ccc(Br)cc1	-0.736
CNc1ccccc1C(C)(C)c1cc(-c2ccc(F)cc2)no1	-0.295
Nc1ccc(S(=O)(=O)c2cccc(N)c2)cc1	-0.219
Cc1ccccc1C(=O)N1CCN(c2nc(N3CCOCC3)nc(N3CCOCC3)n2)CC1	0.365
CCSc1ncnc2sc3c(c12)CCC3	-0.0891
N#Cc1ccsc1NC(=O)CN1CCN(S(=O)(=O)c2ccccc2C(F)(F)F)CC1	-0.938
CCOCCCNC(=O)CSc1ccccc1	0.204
CCCNC(=O)CSc1nnc(C)s1	0.0495
COC(=O)c1ccc(C(=O)OC)c(NC(=O)CN2CCN(c3ccccc3OC)CC2)c1	-0.601
CCOC(=O)Cn1c(Br)nc2c1c(=O)[nH]c(=O)n2C	-0.0622
CC(=O)Nc1ccc(OCC(O)Cn2nc(C)c(C(C)=O)c2C)cc1 (stereo not drawn)	0.566
C=CCc1cc(OC)ccc1OCCOCCC(C(=O)OCC)C(=O)OCC	-0.251

Structure (SMILES)	z-score
C=CCn1c(SCc2nc3ccccc3[nH]2)nnc1-c1ccc(OC)cc1	-0.057
Cc1ccc(-c2nc(NC(=O)c3nn(C)cc3[N+](=O)[O-])sc2C)cc1C	0.0802
CCOC(=O)c1ccc(NC(=O)C(C)NS(=O)(=O)c2ccc(OC)cc2)cc1 (stereo not drawn)	-0.663
Cn1cc([N+](=O)[O-])c(C(=O)N(Cc2ccccc2)Cc2ccccc2)n1	-1.5
CC(NC(=O)COc1ccccc1-c1ccccc1)c1ccccc1 (stereo not drawn)	-0.192
Cc1ccc(NC(=O)CSc2nn(-c3ccc(Cl)cc3)c(=S)s2)cc1S(=O)(=O)N(C)C	0.338
COc1ccc(OC)c(S(=O)(=O)NCc2cccnc2)c1	0.187
O=C(NC(=S)Nc1ccc(S(=O)(=O)Nc2nccs2)cc1)c1cccc(F)c1	-0.159
CCOc1ccccc1C1CC(=O)NC(SCC)=C1C#N (stereo not drawn)	-1.6
CCSc1nc(=O)n(-c2ccccc2)c(C)c1C(C)=O	-0.368
N#C/C(=C\c1c[nH]c2ccccc12)c1nnc2n1CCCCC2	-0.167
Cc1cc2cc3c(cc2nc1SCC(=O)Nc1nc(C)c(C)s1)OCO3	-0.138
CCOCCCNc1nc2ccccc2[nH]1	-0.0367
Cc1cc(C)c(N2CCN(S(=O)(=O)N3CCCCCC3)CC2)c(C)c1	-0.176
Cc1ccc(S(=O)(=O)Nc2ccc(-c3cn4ccc(C)cc4n3)cc2)cc1	-0.0809
COc1ccc(CN(C(=O)CN2C(=O)C(C)Oc3ccccc32)C2CCCC2)c(OC)c1 (stereo not drawn)	-0.86
Cc1nnc(SCc2ccc(F)cc2)n1NC/C=C/c1ccccc1	-0.404
CC(C)CN(C(=O)COC(=O)c1ccccc1SCC(=O)NC1CCCCCC1)C1CCS(=O)(=O)C1 (stereo not drawn)	-0.47
O=C(Cc1ccccc1)Nc1ccccc1N1CCOCC1	0.678
COc1ccc(C(=O)N2CCN(S(=O)(=O)c3ccccc3)CC2)c(OC)c1	-0.362
CCN(CC)S(=O)(=O)c1ccc(Cl)c(NC(=O)c2cc(Cl)cc(Cl)c2)c1	0.00219
CCn1c(-c2csc(-c3ccc(Cl)cc3)n2)n[nH]c1=S	1.31
O=C(CCn1c(=O)sc2ccccc21)NCCN1CCOCC1	0.052

Structure (SMILES)	z-score
COc1ccc(CCn2c(N3CCN(Cc4ccccc4)CC3)nc3c2c(=O)[nH]c(=O)n3C)cc1	-0.247
CCCCn1c(CN2CCN(c3ccc(F)cc3)CC2)nc2c1c(=O)n(C)c(=O)n2C	-0.751
Cn1cc(C(=O)Nc2ccc(F)c(Cl)c2)cn1	0.00201
O=C(NCCN1C(=O)S/C(=C\c2cccnc2)C1=O)c1cccc(OC(F)F)c1	-0.253
Cc1nnc(SCC(=O)NCCN2C(=O)CSC2=O)s1	0.195
CCN(CC)S(=O)(=O)c1cccc(-c2nnc(SCC(=O)NCCC3=CCCCC3)n2N)c1	-0.545
COC(=O)C(NC(=O)c1ccccc1)(Nc1nc(C)cs1)C(F)(F)F (stereo not drawn)	0.511
Cc1cc(=O)[nH]c(SCC(=O)c2ccc(C(C)C)cc2)n1	-0.894
CCOc1ccc(OCCOCCNCCOC)cc1	0.0989
Cc1ccc2nc(SCC(=O)c3cc(C)n(C)c3C)[nH]c2c1	-1.1
CCCc1nnc(NC(=O)CCN2C(=O)c3ccccc3C2=O)s1	0.196
O=C(NCCN1CCCCC1)Nc1ccccc1	0.0513
CCOC(=O)CNC(=O)/C=C/c1c(Cl)cccc1Cl	-0.181
CC(C)Cc1nnc(NC(=O)CSc2ccccn2)s1	-1.08
COc1cc(/C=N/NC(=O)c2cccnc2)ccc1OCC(=O)N1CCOCC1	-0.3
CCC(C)(C)NC(=O)C(c1ccc(C)o1)N(C(=O)c1csnn1)c1cccc(F)c1 (stereo not drawn)	0.38
CCOC(=O)C1=C(C)NC(=O)NC1C (stereo not drawn)	0.203
CCn1c(-c2ccccc2Cl)nn(CC(=O)Nc2cc(Cl)ccc2Cl)c1=S	0.0802
COc1ccc(-c2nc(C#N)c(NCCCN(C)C)o2)cc1OC	active: 11.2
COc1ccc(C)cc1S(=O)(=O)Nc1cc(Cl)ccc1Cl	0.703
Cc1ccc(C2C(C#N)C(C#N)N3CCCN23)cc1 (stereo not drawn)	-0.161
Cc1ccc(OC(=O)c2ccc(S(=O)(=O)N(C)C)cc2)c(-n2nc3ccccc3n2)c1	-0.147
Cc1ccc(N2CC(C(=O)Nc3ccc4c(c3)OCO4)CC2=O)cc1 (stereo not drawn)	0.373

Structure (SMILES)	z-score
O=[N+]([O-])c1ccc(CSc2nc3ccccc3o2)cc1	-0.0485
CCn1nnnc1-c1ccc(OC)c(S(=O)(=O)Nc2ccc(C)c(C)c2)c1	-0.224
CCCc1ccc(Oc2cc(Cl)nc(N)n2)cc1	-0.135
CN1CCN(Cc2nc3ccccc3c(=O)n2Cc2nc(-c3ccccc3F)cs2)CC1	-1.84
O=C1CCCN1CN1CCCCC1	0.661
CCOc1ccccc1Nc1nc(N)nc(CSc2nncn2C)n1	0.0367
COC(=O)/C=C1\OC(c2ccccc2)=CC1=O	-0.0673
CN(c1ccccc1)S(=O)(=O)c1ccc(NC(=S)NC(=O)c2ccccc2)cc1	active: 3.04
CCC(CO)[n+]1c(C)cc(/C=C2\Sc3ccccc3N2Cc2ccccc2)cc1C (stereo not drawn)	-0.628
COC(=O)c1ccc(COc2nc(C)cc(C)c2C#N)o1	-0.603
CCc1nc(SCC(=O)NCCc2ccccc2)n[nH]1	0.0579
c1ccc(C2NCCn3cccc32)cc1 (stereo not drawn)	0.437
CN1CCc2c(c3ccccc3n2C)C1	0.14
C#CCn1c(=NC(=O)c2ccc(Br)s2)sc2cc(NC(C)=O)ccc21	0.137
O=C(NCc1cccs1)Nc1ccc2c(c1)OCO2	-0.138
CCc1ccccc1NC(=O)c1cnccn1	-0.367
Cc1nn(C(=O)C2CC2)c(C)c1Sc1ccc(Cl)cc1	-0.0405
CCOC(=O)n1c(=O)n(Cc2c(Cl)cccc2Cl)c2ccccc21	-0.406
O=C(CSc1nnc(CNC(=O)C23CC4CC(CC(C4)C2)C3)n1-c1ccc(F)cc1)Nc1ccccc1	-0.269
COC(=O)c1ccc(Cn2cc(Cl)cn2)cc1	-0.284
c1ccc(OCc2nc3ccccc3[nH]2)cc1	0.0147
